# Results: the supplement of paper PMC3334620
# Over roughly 33,000 sequences, “E-score (-0.5 to 0.5)” has its median near -0.04; the highest 2% begin near 0.36. The list shows a part of the results.
# Target: T1, Hmlalpha2 (UniProt P0CY09)
# T1 sequence: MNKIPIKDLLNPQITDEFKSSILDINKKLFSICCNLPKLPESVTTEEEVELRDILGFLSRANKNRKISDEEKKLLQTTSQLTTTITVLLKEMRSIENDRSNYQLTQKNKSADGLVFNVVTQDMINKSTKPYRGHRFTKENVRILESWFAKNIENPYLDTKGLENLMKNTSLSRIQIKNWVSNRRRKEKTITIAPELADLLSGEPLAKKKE
# Experiment: PBM E-score (8-mer binding enrichment) (E-score (-0.5 to 0.5)); higher = stronger / more preferred TF binding; most listed sequences are background and not binding sites
# Conditions: protein concentration: 200 nM; construct: GST-full length
# In short: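 Universal all-10-mer Agilent arrays, double-stranded by primer extension on fresh or once-stripped slides, were probed with about 100-200 nM GST-tagged yeast transcription factors made by PURExpress. Fluorescent anti-GST detected bound protein, and masliner normalised the scans. E-scores from the Universal PBM Analysis Suite were given to each ungapped eight-base word pooled with its reverse complement.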
row,Sequence,PBM E-score
1,GGTCTCAA,-0.166
2,CGACACAG,0.168
3,AGCATGCT,0.151
4,CCCAACAA,0.123
5,ACCGCCGG,-0.412
6,GAATTAAA,0.0754
7,TAGTACTA,0.184
8,GTTGTTCA,0.151
9,CTACGTTA,0.316
10,AGCACTTA,0.0175
11,ATTAGGTC,0.0453
12,AACGCATA,0.211
13,CTGTGTTC,0.304
14,ACCGACGG,-0.0642
15,CGCAATAG,-0.0126
16,CGATGGCA,-0.218
17,TCCGAAGA,-0.131
18,CAATACCC,-0.0298
19,AACAGTGA,-0.063
20,GTACAGTA,0.131
21,CCCCCGCA,-0.167
22,AGTCACAG,0.00738
23,TTACGCAA,0.391
24,CAGAAAGG,-0.0817
25,GTGATAAA,0.0295

row,Sequence,PBM E-score
1,GCGTCCAA,-0.0357
2,TAGCACAA,0.167
3,TGGCGAAA,0.0356
4,CTTCAATA,0.173
5,CAGGGAAG,-0.212
6,CGGAGAAC,-0.0722
7,TACGCTCA,0.103
8,GAATTTGA,-0.109
9,GAGAATCC,-0.193
10,TAAGACTA,0.0176
11,ACCTCTCC,-0.191
12,CTTAATAC,0.214
13,CGTCTCAG,0
14,AAAGATCG,-0.0675
15,AACTCGAG,0.0347
16,GAAGGGAA,-0.367
17,CGAGCGTA,0.161
18,CATAGCTC,0.00757
19,ACAGTGGA,-0.0616
20,ACGATGTA,0.376
21,CAGATTAC,0.303
22,CAGGGTCC,-0.201
23,CGATGATA,0.0847
24,CCCAATAC,0.0536
25,ACCATAAA,0.144

row,Sequence,PBM E-score
1,ATTTACCC,0.0345
2,GGAGTGTA,0.18
3,AGAGTGCA,-0.0981
4,GAGTGTCA,0.0527
5,TAGACGAA,0.137
6,AAGAACCC,-0.0837
7,AGGAACGG,-0.253
8,CATAACAG,0.174
9,CTTAAAGA,-0.0624
10,AACTTGTA,0.276
11,CCCAAGCG,-0.19
12,GCCCACCA,-0.273
13,ATTAACAC,0.455
14,CTTTGGTA,-0.171
15,TGTTACAA,0.31
16,CATATGAA,-0.0549
17,GAGATCTA,-0.0485
18,GTACTCGA,0.0247
19,GTCCACGA,-0.267
20,TAGCCAGA,-0.0391
21,AGCTAATC,-0.0679
22,GGAGCTAC,0.00025
23,AGAGTCTG,-0.282
24,ACGCTCGC,0.0598
25,AATTGTAA,0.193

row,Sequence,PBM E-score
1,AGCCCAGC,-0.297
2,ACAGGGAA,0.0611
3,CTAGGTAA,0.111
4,CAGTAGCG,-0.122
5,AACTTGTC,0.114
6,TAACTCGA,0.277
7,AAACGAGG,-0.0659
8,ACCGCTAG,-0.194
9,ACACGTGA,0.318
10,TATATTAA,0.236
11,ACTGCGAC,0.00035
12,CACCTGCC,-0.148
13,AGATGTAT,0.251
14,ACAGAATC,-0.104
15,AAAGGAGT,-0.0272
16,ACCTGGTG,-0.11
17,GGTCCAAC,-0.266
18,AATCGCGG,-0.223
19,GATGTACA,0.379
20,CGTCAGGA,-0.0605
21,GACTGAAC,-0.0268
22,ATCGAGGC,-0.0868
23,CAACGATG,0.115
24,GATGACAC,0.258
25,AACTTTCG,-0.0626

row,Sequence,PBM E-score
1,ACGCCCGC,-0.134
2,AATGGATA,-0.0546
3,GTCTGTCA,0.0178
4,CCCTCTGA,-0.271
5,AGGAAAAG,-0.0101
6,GTTCAGCA,0.0151
7,GTGGGCCA,-0.0919
8,CATCGTCA,0.056
9,ACTGTTAA,0.208
10,CTCTAGAG,-0.148
11,ACTAGAGT,-0.0286
12,AATCTGCG,-0.0588
13,AACAGTAA,0.0289
14,AAAAAGTA,0.203
15,CCCTTTAC,0.134
16,ACAGCTCT,-0.164
17,ACCGCGGT,-0.0762
18,ATATATCC,0.0178
19,CCCTTCCG,-0.371
20,AGGTAGAT,0.0792
21,CATTAGGA,-0.0149
22,GGTCGTAC,-0.105
23,GGGTGGAA,-0.273
24,GAAGACTC,-0.114
25,TATTAAAA,0.24

row,Sequence,PBM E-score
1,GTGCTGAA,0.0354
2,GTCCCGAC,-0.144
3,ACCGACGA,-0.225
4,CTATCCTC,-0.329
5,ATATCGGC,-0.111
6,TACCAGTA,0.0973
7,GGAAGTAC,-0.0282
8,GACGTCGC,-0.0575
9,CATGGGCC,-0.0147
10,CAAGGTTC,-0.162
11,CCCAACTC,-0.174
12,GACAAGAA,0.0754
13,AAAACCTT,-0.171
14,AAAAGATG,0.18
15,CCGAGATC,-0.256
16,CAGAACCA,-0.188
17,GATCGTAA,0.0511
18,CTGCAAAA,0.0334
19,CGCCAGAG,-0.305
20,ATTAGAAT,0.117
21,AACGCGAT,0.26
22,ACGCATTG,0.172
23,ATTACAGC,0.141
24,CAAGGATC,0.0403
25,CCCGGCAG,-0.33

row,Sequence,PBM E-score
1,ATGCGTGG,-0.125
2,ACTAGATC,0.061
3,GACCTCGA,-0.0695
4,ATCTAAGG,-0.25
5,ATCCGTGA,-0.161
6,ACCTAACG,0.0448
7,AAAGTGTA,0.177
8,TTGAACAA,0.259
9,TCGCTTAA,0.0673
10,AGACCGTA,-0.158
11,CTCACTTA,0.0199
12,ATGACGCG,0.26
13,CACGTGGA,0.104
14,AACTGTCC,-0.223
15,CGCCCTAG,-0.334
16,TGATTGAA,0.222
17,CATGTTTC,0.333
18,CTCGTAAA,0.266
19,ATTTATCA,0.179
20,AGGCCCGA,-0.35
21,ACGAAAGA,-0.0344
22,ATAACGAG,0.205
